The campaign covered roughly 320,000 compounds. About 9,100 (2.8%) were called active. Inconclusive means that the source gave no clear call. Such entries were picked first, then a sample of the others. The call rests on the fitted dose curve; in most records, active means well fitted activation curve with a large enough effect; inconclusive means small, poorly fitted or top-dose-only effect; inactive means no such curve, though single readings can be large or run the other way. Potencies of inconclusive entries are left out as doubtful fits.
Test: qHTS Assay for Rab9 Promoter Activators; further: nearly all actives have a fitted effect of over 60% in size; on activation, negative = inhibition: % of control where 0% means no effect
Conditions: Huh7 Rab9 promoter-luciferase reporter, luminescence, 24 h; series mostly up to 9.22 µM; activation, negative = inhibition: at the top concentration
Procedure, shortened: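 Measured in stably transfected Huh7 cells bearing a Rab9 promoter–luciferase construct: 24 h compound treatment at 37 °C, followed by luminescence detection.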
Potency means the concentration at half of the fitted maximal effect; tags describe the fitted curve by direction and shape.

SMILES	activation, negative = inhibition	Potency
Cc1noc(C)c1COc1ccc(C(=O)OCC(=O)c2ccc3c(c2)OCCO3)cc1	inactive: 2.42%	–
CCCCn1c(N)c(N(CCOC)C(=O)c2cccc(-n3cnnn3)c2)c(=O)[nH]c1=O	inactive: -1.71%	–
COC(=O)c1ccc(NN=Nc2ccc(C)cc2)cc1	–	active: 1.12 µM
Cc1cccc(/C=C/c2nc3ccccc3c(=O)[nH]2)c1	–	inconclusive [activator, partial curve, poor fit]
Cc1cccc(-c2cc3c(N=O)c4ccccc4c-3n[nH]2)c1	–	active: 1.26 µM
O=C(COc1ccc(Cl)cc1Cl)NCc1ccco1	–	inconclusive [activator, single point]
COc1ccc(NC(=O)Cn2c(NCC(C)O)nc3ccccc32)cc1Cl (stereo unspecified)	–	inconclusive [activator, single point]
COc1cc(OCC(=O)NC(C)C)cc2c1C(=O)O[C@@H](C)CCCC(=O)CCCCC2	inactive: -4.95%	–
CC1CCC/C(=C\Nc2ccc(O)cc2)C1=O (stereo unspecified)	–	inconclusive [activator, partial curve]
CCCCOc1ccc(/C(N)=N/O)cc1	–	inconclusive [activator, partial curve]
CC1=NN(C(N)=S)C(=O)C1N=Nc1cccc([N+](=O)[O-])c1 (stereo unspecified)	–	inconclusive [activator, partial curve]
O=C(CSc1nnc(CNC(=O)c2cccs2)o1)NCc1ccc(F)cc1	inactive: -0.108%	–
COc1ccc(/C=N/NC(=O)c2ccn[nH]2)cc1CSc1ccccn1	–	inconclusive [activator, partial curve]
COc1ccc(-c2noc(-c3cccnc3)n2)cc1OC	–	active: 3.55 µM
CC(C)c1ccc(-c2nn[nH]n2)cc1	–	inconclusive [activator, single point]
CC(C)=CC(=O)Nc1ccc(OCc2ccccc2)cc1	–	inconclusive [activator, single point]
Oc1ccc(N=C/C=C/c2ccc(Br)cc2)cc1-c1nc2ccccc2s1	–	inconclusive [activator, single point]
O=C(NCCCN1CCCC1=O)c1cn(-c2ccccc2)nc1-c1ccccc1	inactive: -3.59%	–
CCn1c(C)csc1=NC(=O)c1ccccc1O	–	active: 2.82 µM
CCCN1CCC(=O)N([C@H](CSc2ccc(Br)cc2)c2ccccc2)CC1	–	inconclusive [activator, partial curve]
COc1cccc(-c2nc3ccccc3s2)c1	–	inconclusive [activator, partial curve]

SMILES	activation, negative = inhibition	Potency
COc1ccc(F)cc1S(=O)(=O)n1cc(C)nc1-c1ccccc1	inactive: 0.593%	–
CC(C)c1ccc(/C=N/NC(=O)CCNC(=O)c2ccccc2)cc1	–	inconclusive [activator, partial curve]
O=S(=O)(c1cccs1)N1CCN(CCOc2ccccc2)CC1	–	inconclusive [activator, single point]
Cc1cc(-c2nnc(-c3cccc(C(F)(F)F)c3)o2)no1	–	inconclusive [activator, partial curve]
Cn1c(=O)c(C(=O)Nc2cnccn2)c(O)c2ccccc21	–	inconclusive [activator, single point]
COc1ccc(N=C2S/C(=C\c3ccc(Cl)c([N+](=O)[O-])c3)C(=O)N2CCN(C)C)cc1	inactive: -4.11%	–
O=C(COc1ccccc1Cl)Nc1ccccc1C(=O)N1CCCCC1	–	inconclusive [activator, partial curve]
CC1CCCC(C)N1/N=C/c1ccc(C(=O)O)cc1 (stereo unspecified)	inactive: -5.37%	–
O=C1Nc2ccccc2N(O)N1c1ccc(S(=O)(=O)N2CCCCCC2)cc1	inactive: 2.48%	–
CNc1ncc(C(=O)c2ccc(Cl)cc2)s1	–	active: 2.82 µM
CCN(CC(=O)Nc1ccc2c(c1)OCCO2)C(=O)/C=C/c1cccc(OC)c1OC	–	inconclusive [activator, partial curve]
NC(=Nc1ccccc1)NC(=O)c1nc(Cl)c(N)nc1N	–	inconclusive [activator, partial curve]
CCCC(=O)Nc1ccc2nn(-c3ccc(OC)cc3)nc2c1	–	active: 2 µM
COc1cc([N+](=O)[O-])ccc1NC(=S)NNC(=O)CCC(=O)Nc1ccccc1Cl	–	inconclusive [activator, single point]
CCCCc1nc2cc(C(=O)N3CCCC3)ccc2o1	–	active: 2.82 µM
Cn1c(CC(=O)Nc2ccccc2F)nnc1SCC(=O)Nc1nccs1	inactive: 5.92%	–
CCOc1ccc(NC(=O)c2ccco2)cc1	–	active: 0.631 µM
Cn1nc(C(=O)N2CCN(c3ccc([N+](=O)[O-])cc3)CC2)c2c1-c1ccccc1S(=O)(=O)C2	inactive: -13.7%	–
CCOC(=O)Cc1csc(/N=C/c2c(O)n(-c3ccccc3C(F)(F)F)c(=O)c3ccccc23)n1	inactive: -2.45%	–
N#Cc1c(N2CCCC2)nc(N)c2c(N)nc(N3CCCC3)cc12	–	inconclusive [activator, single point]
COCC(C)NC(=O)c1ccc(N(C)C)cc1 (stereo unspecified)	–	inconclusive [activator, single point]

SMILES	activation, negative = inhibition	Potency
CCc1nc2ccccc2n1CCc1ccccc1	inactive: -0.589%	–
CC(=O)Nc1cc2nn(-c3ccccc3)nc2cc1Cl	–	active: 0.501 µM
Fc1ccc(NC(=S)Nc2cccnc2)cc1	inactive: -2.28%	–
O=C(NC(=S)NCC1CCCO1)c1ccc(Br)o1 (stereo unspecified)	–	inconclusive [activator, single point]
O=[N+]([O-])c1ccccc1/C=N\N1CCN(c2ccccc2)CC1	–	inconclusive [activator, full curve, poor fit]
NC(=O)c1ccsc1NC(=O)COC(=O)c1ccccc1F	inactive: -0.311%	–
CC(NC(=O)/C(C#N)=C/c1cccs1)c1ccccc1 (stereo unspecified)	inactive: -2.7%	–
Cc1ccc(SCc2ccc(C(=O)N3CCCC3)cc2)cc1	–	inconclusive [activator, single point]
Cc1cc(C)c2c(N)c(C(=O)Nc3ccccc3F)sc2n1	–	active: 2.24 µM
Cc1nnc(SCc2cc([N+](=O)[O-])cc3c2OCOC3)n(N)c1=O	inactive: 1.26%	–
O=C(O)C1CC(c2ccccc2)=Nc2ccccc2S1 (stereo unspecified)	–	inconclusive [activator, single point]
CC(NC(=O)NC(=O)c1cccc(Cl)c1)c1ccccc1 (stereo unspecified)	inactive: -1.92%	–
CC1CCN(C(=O)COC(=O)c2c[nH]c3ccccc23)CC1	–	inconclusive [activator, partial curve]
COc1nc(-c2ccccc2)ccc1-c1noc(-c2ccccc2F)n1	–	inconclusive [activator, single point]
O=C(Cc1cc(=O)[nH][nH]1)N/N=C/c1ccccc1Cl	inactive: -5.25%	–
O=C(Nc1ccc(F)cc1)NC1CCCCC1	–	inconclusive [activator, partial curve]
Brc1ccc(NC2=Nc3ccccc3CC2)cc1	–	inconclusive [activator, partial curve]
Cc1cccc(C(=O)N=c2sccn2C)c1[N+](=O)[O-]	–	inconclusive [activator, partial curve]
CC(O)CNc1nc2c(c(=O)n(C)c(=O)n2C)n1C/C=C/c1ccccc1 (stereo unspecified)	inactive: -7.25%	–
O=C(O)c1ccc(/C=C/C(=O)c2ccc3c(c2)OCCCO3)cc1	–	inconclusive [activator, partial curve]
N#CC1=C(N)C(C#N)(C#N)C(c2cccnc2)C2CCCC=C12 (stereo unspecified)	inactive: 8.8%	–

SMILES	activation, negative = inhibition	Potency
Cc1cccc(/C=N\NC(=O)c2sccc2-n2cccc2)c1	–	inconclusive [activator, single point]
CCN(CC)CCCNC(=S)Nc1ccc(Br)cc1	–	inconclusive [activator, partial curve]
COc1ccc(-n2nc(C(=O)NCC(=O)NC(C)C)c3ccccc3c2=O)cc1	inactive: 1.35%	–
CCSc1nn2c(=O)c3ccccc3nc2s1	–	active: 2.51 µM
CC(C)Cn1c(SCc2nc3ccccc3c(=O)[nH]2)nc2ccccc2c1=O	inactive: 0.117%	–
CCOC(=O)Cc1csc(NC(=O)/C=C/c2ccccc2Cl)n1	–	inconclusive [activator, single point]
COc1ccccc1OCc1ccc(C(=O)Nc2ccccc2)cc1	–	inconclusive [activator, partial curve]
CC(C)(C)c1ccc(C(=O)Nc2ccc(CC(=O)O)cc2)o1	inactive: -19%	–
CCCCn1nc(CC(=O)NCCN(CC)CC)c2ccccc2c1=O	inactive: -3.47%	–
COc1ccc(N=Cc2c(O)ccc3ccccc23)cc1	inactive: -3.16%	–
CCn1cnc2sc(-c3ccccc3)cc2c1=O	–	active: 2.82 µM
S=C(c1ccc(-c2cccc(Cl)c2)o1)N1CCCCC1	–	active: 2.51 µM
CCn1cc(/C=C(\NC(=O)c2ccc(OC)c(OC)c2)C(=O)NCCN2CCOCC2)c2ccccc21	–	inconclusive [activator, single point]
Cc1cc(C)n(CC(=O)N/N=C/c2ccc([N+](=O)[O-])s2)n1	inactive: -0.926%	–
O=C1c2cccc3c(N4CCCCC4)ccc(c23)C(=O)N1CCO	–	inconclusive [activator, partial curve]
COc1ccc(-n2cc(-c3ccccc3)[nH]c2=S)cc1	–	inconclusive [activator, single point]
Cc1cccc(OC(=O)c2sc3ncn(C)c(=O)c3c2C)c1	–	inconclusive [activator, partial curve]
O=C(CN1C(=O)c2ccccc2S1(=O)=O)c1cccc(Br)c1	–	inconclusive [activator, partial curve]
